# The shares of active, inactive and inconclusive entries below differ from those in the screen. For some assays here: No potency is given beside an inconclusive call; the fits are too rough. Active and inactive are the calls of the source. The call rests on the fitted dose curve; in most records, active means well fitted curve in the direction sought with a large enough effect; inconclusive means small, poorly fitted or top-dose-only effect, or another doubt; inactive means no such curve, though single readings can be large; an effect the other way counts as inactive or inconclusive.
# What was measured:
# [1] = P-glycoprotein substrates identified in KB-3-1 adenocarcinoma cell line, qHTS therapeutic library screen (AID 1346986); further: nearly all actives have a fitted effect of over 60% in size
# Procedure, shortened: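 Viability by CellTiter-Glo after 72 h compound exposure at 37 degree C, 5% CO2. Cytotoxic call: curve class -1.1 to -2.4, maximum response >50%, AC50 < 10 uM, compared across KB-3-1 and P-gp-overexpressing KB-8-5-11.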
# [2] = qHTS of pediatric cancer cell lines to identify multiple opportunities for drug repurposing: Primary screen for SK-N-MC cells (AID 1347093); details: SK-N-MC viability, CellTiter-Glo luminescence, 48 h; activity change, negative = cytotoxic: at 46 µM (top of the series);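 further: plate controls were DMSO neutral control for no effect and bortezomib for full effect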
# Procedure, shortened: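 Metabolically active cells were quantified by ATP-dependent luminescence (CellTiter-Glo, 15 min at room temperature) following 48 h treatment. Cells had been plated at 500-1,000 per well and settled for 5 h beforehand.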
# [3] = qHTS of pediatric cancer cell lines to identify multiple opportunities for drug repurposing: Primary screen for NB-EBc1 cells (AID 1347095);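 further: plate controls were DMSO neutral control for no effect and bortezomib for full effect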
# Procedure, shortened: (§1)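 Luminescence from CellTiter-Glo served as readout of metabolically active cells after 48 h compound exposure. Titrations: MIPE 11-point, from 0.78 nM; NPC 8-point, from 0.59 nM (final). Concentration-response curves came straight from the primary screen.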
# [4] = qHTS of pediatric cancer cell lines to identify multiple opportunities for drug repurposing: Primary screen for U-2 OS cells (AID 1347096);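 further: plate controls were DMSO wells for no effect and bortezomib positive control wells for full effect; nearly all actives have a fitted effect of over 50% in size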
# Procedure, shortened: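 Viability after 48 h compound treatment at 37C, 500-1,000 cells/well, read as ATP luminescence with CellTiter-Glo. Primary screens used 11-point (MIPE, 0.78 nM-46 µM) or 8-point (NPC, 0.59 nM-46 µM) final concentrations; follow-up screens used 11-point dilutions.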
# [5] = qHTS of pediatric cancer cell lines to identify multiple opportunities for drug repurposing: Primary screen for SK-N-SH cells (AID 1347098); further: potency means the concentration at half of the fitted maximal effect; nearly all actives have a fitted effect of over 65% in size
# Procedure, shortened: (§2)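 Cells (500-1,000/well) rested 5 h, then received compounds for 48 h; metabolically active cells were measured by CellTiter-Glo luminescence. Final concentrations spanned up to 46 µM (MIPE, 11-point) or 0.59 nM-46 µM (NPC, 8-point) in primary screens, 11-point in follow-ups.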
# [6] = qHTS of pediatric cancer cell lines to identify multiple opportunities for drug repurposing: Primary screen for NB1643 cells (AID 1347099); details: NB1643 neuroblastoma viability, CellTiter-Glo luminescence, 48 h; activity change, negative = cytotoxic: at 46 µM (top of the series);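 further: plate controls were DMSO neutral control for no effect and bortezomib positive control for full effect; nearly all actives have a fitted effect of over 50% in size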
# Procedure, shortened: as §1
# [7] = qHTS of pediatric cancer cell lines to identify multiple opportunities for drug repurposing: Primary screen for BT-12 cells (AID 1347101);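 further: plate controls were DMSO for no effect and bortezomib positive control for full effect; nearly all actives have a fitted effect of over 25% in size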
# Procedure, shortened: as §2
# [8] = Quantitative High-Throughput drug screen in 47 multiple myeloma cell lines against the NCATS MIPE library collection: FR4_PLB cell viability assay (AID 1918924; further: potency means the concentration at half of the fitted maximal effect; nearly all actives have a fitted effect of over 35% in size)
# Procedure, shortened: (§3)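 Steps: seed 500 cells per well; pin-transfer MIPE 4.0 library; incubate 48 h at 37C, 5% CO2, humidified; add CellTiter-Glo, 5 min room temperature; read luminescence.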
# [9] = Quantitative High-Throughput drug screen in 47 multiple myeloma cell lines against the NCATS MIPE library collection: AMO1_DSMZ cell viability assay (AID 1918927; further: nearly all actives have a fitted effect of over 30% in size); details: AMO1 myeloma cells viability, CellTiter-Glo ATP luminescence, 48 h; viability, % of DMSO: at 45.8 µM (top of the series)
# Procedure, shortened: (§4)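 Myeloma cells (500 per well) were exposed to MIPE 4.0 compounds by pin transfer and incubated 48 hours at 37C, 5% CO2. Viability was read as ATP by CellTiter-Glo luminescence, normalised to DMSO (100%) and media-only (0%) wells.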
# [10] = Quantitative High-Throughput drug screen in 47 multiple myeloma cell lines against the NCATS MIPE library collection: ARP1_JJKsccF8 cell viability assay (AID 1918928; further: nearly all actives have a fitted effect of over 40% in size)
# Procedure, shortened: (§5)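 500 cells/well; MIPE 4.0 library pinned in; 48 h, 37 °C, 5% CO2; CellTiter-Glo ATP luminescence. Controls: DMSO = 100% viability, medium only = 0%.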
# [11] = Quantitative High-Throughput drug screen in 47 multiple myeloma cell lines against the NCATS MIPE library collection: Karpas620_DSMZ cell viability assay (AID 1918959); further: potency means the concentration at half of the fitted maximal effect; nearly all actives have a fitted effect of over 30% in size
# Procedure, shortened: as §3
# [12] = Quantitative High-Throughput drug screen in 47 multiple myeloma cell lines against the NCATS MIPE library collection: KMM1_JCRB cell viability assay (AID 1918960); further: nearly all actives have a fitted effect of over 30% in size
# Procedure, shortened: as §5
# [13] = Quantitative High-Throughput drug screen in 47 multiple myeloma cell lines against the NCATS MIPE library collection: KHM11_PLB cell viability assay (AID 1918962); further: nearly all actives have a fitted effect of over 35% in size
# Procedure, shortened: as §3
# [14] = Quantitative High-Throughput drug screen in 47 multiple myeloma cell lines against the NCATS MIPE library collection: JIM1_ECACC cell viability assay (AID 1918964; further: potency means the concentration at half of the fitted maximal effect); details: JIM1 myeloma viability, CellTiter-Glo ATP luminescence, 48 h; viability (% of DMSO): at 45.8 µM (top of the series)
# Procedure, shortened: as §4
# [15] = Quantitative High-Throughput drug screen in 47 multiple myeloma cell lines against the NCATS MIPE library collection: INA6_PLB cell viability assay (AID 1918965; further: potency means the concentration at half of the fitted maximal effect; nearly all actives have a fitted effect of over 55% in size)
# Procedure, shortened: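 CellTiter-Glo luminescence (ATP) after 48 h compound exposure, 37C/5% CO2; 500 cells/well; MIPE 4.0 approved/investigational drugs pinned in; DMSO = 100%, media only = 0% viability.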
# [16] = Quantitative High-Throughput drug screen in 47 multiple myeloma cell lines against the NCATS MIPE library collection: JJN3_DSMZ cell viability assay (AID 1918966; further: potency means the concentration at half of the fitted maximal effect; nearly all actives have a fitted effect of over 50% in size); details: JJN3 myeloma cells viability, CellTiter-Glo ATP, 48 h; viability, % of DMSO: at 45.8 µM (top of the series)
# Procedure, shortened: as §4
# [17] = Quantitative High-Throughput drug screen in 47 multiple myeloma cell lines against the NCATS MIPE library collection: Karpas25_ECACC cell viability assay (AID 1918968; further: nearly all actives have a fitted effect of over 35% in size)
# Procedure, shortened: as §4
# [18] = Quantitative High-Throughput drug screen in 47 multiple myeloma cell lines against the NCATS MIPE library collection: KMS27_JCRB cell viability assay (AID 1918970); further: potency means the concentration at half of the fitted maximal effect; nearly all actives have a fitted effect of over 30% in size
# Procedure, shortened: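 KMS27_JCRB myeloma cells, 500 per well, exposed 48 h at 37 C, 5% CO2 to MIPE 4.0 compounds. Viability from ATP by CellTiter-Glo luminescence, normalized to DMSO (100%) and medium-only (0%) wells.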
# [19] = Quantitative High-Throughput drug screen in 47 multiple myeloma cell lines against the NCATS MIPE library collection: KMS12BM_JCRB cell viability assay (AID 1918971); further: potency means the concentration at half of the fitted maximal effect; nearly all actives have a fitted effect of over 35% in size
# Procedure, shortened: (§6)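 Viability readout: CellTiter-Glo luminescence following 5 min room-temperature incubation with reagent. Prior exposure: 48 h, 37C, humidified 5% CO2, 500 cells per well.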
# [20] = Quantitative High-Throughput drug screen in 47 multiple myeloma cell lines against the NCATS MIPE library collection: KMS20_JCRB cell viability assay (AID 1918973); details: CellTiter-Glo ATP, 48 h; viability (% of DMSO): at 45.8 µM (top of the series); further: nearly all actives have a fitted effect of over 45% in size
# Procedure, shortened: as §4
# [21] = Quantitative High-Throughput drug screen in 47 multiple myeloma cell lines against the NCATS MIPE library collection: KMS26_JCRB cell viability assay (AID 1918975); details: KMS26 myeloma cells viability, CellTiter-Glo ATP, 48 h; viability (% of DMSO): at 45.8 µM (top of the series); further: nearly all actives have a fitted effect of over 45% in size
# Procedure, shortened: as §6
# [22] = Quantitative High-Throughput drug screen in 47 multiple myeloma cell lines against the NCATS MIPE library collection: MMM1_PLB cell viability assay (AID 1918976)
# Procedure, shortened: (§7)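 500 cells/well; MIPE 4.0 drugs pin-transferred; 48 h, 37C, 5% CO2. CellTiter-Glo, 5 min RT, luminescence. Controls: DMSO 100%, media 0%.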
# [23] = Quantitative High-Throughput drug screen in 47 multiple myeloma cell lines against the NCATS MIPE library collection: MOLP8_DSMZ cell viability assay (AID 1918977); details: MOLP8 myeloma viability, CellTiter-Glo ATP luminescence, 48 h; viability (% of control): at 45.8 µM (top of the series); further: potency means the concentration at half of the fitted maximal effect; nearly all actives have a fitted effect of over 45% in size
# Procedure, shortened: as §7
# [24] = Quantitative High-Throughput drug screen in 47 multiple myeloma cell lines against the NCATS MIPE library collection: OCIMY1_PLB cell viability assay (AID 1918979); further: nearly all actives have a fitted effect of over 35% in size
# Procedure, shortened: as §7
# [25] = Quantitative High-Throughput drug screen in 47 multiple myeloma cell lines against the NCATS MIPE library collection: MM1S_ATCC cell viability assay (AID 1918980); further: potency means the concentration at half of the fitted maximal effect; nearly all actives have a fitted effect of over 45% in size
# Procedure, shortened: as §7
# [26] = Quantitative High-Throughput drug screen in 47 multiple myeloma cell lines against the NCATS MIPE library collection: MM1R_ATCC cell viability assay (AID 1918981)
# Procedure, shortened: as §7
# [27] = Quantitative High-Throughput drug screen in 47 multiple myeloma cell lines against the NCATS MIPE library collection: L363_DSMZ cell viability assay (AID 1918984); details: L363 myeloma viability, CellTiter-Glo ATP luminescence, 48 h; viability (% of control): at 45.8 µM (top of the series); further: potency means the concentration at half of the fitted maximal effect; nearly all actives have a fitted effect of over 40% in size
# Procedure, shortened: as §7
# [28] = Quantitative High-Throughput drug screen in 47 multiple myeloma cell lines against the NCATS MIPE library collection: KMS34_JCRB cell viability assay (AID 1918985); further: potency means the concentration at half of the fitted maximal effect; nearly all actives have a fitted effect of over 40% in size
# Procedure, shortened: as §7
# [29] = Quantitative High-Throughput drug screen in 47 multiple myeloma cell lines against the NCATS MIPE library collection: OCIMY5_PLB cell viability assay (AID 1918988);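 further: 100% = DMSO-treated wells and 0% = wells with media alone; nearly all actives have a fitted effect of over 65% in size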
# Procedure, shortened: as §7
# [30] = Quantitative High-Throughput drug screen in 47 multiple myeloma cell lines against the NCATS MIPE library collection: OPM1_PLB cell viability assay (AID 1918989); further: nearly all actives have a fitted effect of over 40% in size
# Procedure, shortened: as §7
# [31] = Quantitative High-Throughput drug screen in 47 multiple myeloma cell lines against the NCATS MIPE library collection: SKMM1_PLB cell viability assay (AID 1919863); details: SKMM1 myeloma viability, CellTiter-Glo ATP, 48 h; viability: stronger effect = lower value
# Procedure, shortened: as §7
# [32] = Quantitative High-Throughput drug screen in 47 multiple myeloma cell lines against the NCATS MIPE library collection: VP6_DJ cell viability assay (AID 1919867)
# Procedure, shortened: as §7
# [33] = Quantitative High-Throughput drug screen in 47 multiple myeloma cell lines against the NCATS MIPE library collection: UTMC2_PLB cell viability assay (AID 1919868); details: CellTiter-Glo ATP luminescence, 48 h; viability (% of DMSO control): at 45.8 µM (top of the series); further: potency means the concentration at half of the fitted maximal effect; nearly all actives have a fitted effect of over 55% in size
# Procedure, shortened: as §7
# [34] = Quantitative High-Throughput drug screen in 47 multiple myeloma cell lines against the NCATS MIPE library collection: PE2_PLB cell viability assay (AID 1919869)
# Procedure, shortened: as §7
# [35] = Quantitative High-Throughput drug screen in 47 multiple myeloma cell lines against the NCATS MIPE library collection: KMS28BM_JCRB cell viability assay (AID 1919874); further: nearly all actives have a fitted effect of over 35% in size
# Procedure, shortened: as §7
# Tags describe the fitted curve by direction and shape.
smiles,measurement,setting,value
CCN1CCN(C(=O)N[C@H](C(=O)N[C@@H]2C(=O)N3C(C(=O)O)=C(CSc4nnnn4C)CS[C@@H]23)c2ccc(O)cc2)C(=O)C1=O,outcome,[1],inactive [at 9.29 µM]
same,"activity change, negative = cytotoxic",[2],inactive: -14.8% [at 9.22 µM]
same,"activity change, negative = cytotoxic",[3],inactive: 14.5% [at 9.22 µM]
same,"activity change, negative = cytotoxic",[4],inactive: 20.8% [at 9.22 µM]
same,Potency,[5],"inconclusive [cytotoxic, single point]"
same,"activity change, negative = cytotoxic",[6],inactive: 17.1% [at 9.22 µM]
same,"activity change, negative = cytotoxic",[7],inactive: 17.1% [at 11.5 µM]
same,Potency,[8],"inconclusive [rising, full curve, poor fit]"
same,Potency,[9],inactive
same,Potency,[10],inactive
same,Potency,[11],"inconclusive [cytotoxic, full curve, poor fit]"
same,Potency,[12],inactive
same,Potency,[13],inactive
same,Potency,[14],inconclusive
same,Potency,[15],"inconclusive [rising, partial curve, poor fit]"
same,Potency,[16],inconclusive
same,Potency,[17],inactive
same,Potency,[18],"inconclusive [cytotoxic, partial curve, poor fit]"
same,Potency,[19],inconclusive
same,Potency,[20],inactive
same,Potency,[21],inactive
same,Potency,[22],"inconclusive [rising, full curve]"
same,Potency,[23],"inconclusive [rising, full curve, poor fit]"
same,Potency,[24],inactive
same,Potency,[25],inconclusive
same,Potency,[26],"inconclusive [rising, full curve, poor fit]"
same,Potency,[27],inconclusive
same,Potency,[28],"inconclusive [rising, full curve, poor fit]"
same,Potency,[29],inactive
same,Potency,[30],inactive
same,Potency,[31],"inconclusive [rising, full curve, poor fit]"
same,Potency,[32],"inconclusive [rising, full curve, poor fit]"
same,Potency,[33],"inconclusive [rising, partial curve, poor fit]"
same,Potency,[34],"inconclusive [rising, full curve, poor fit]"
same,Potency,[35],inactive

# Reference: PubChem BioAssay (NCATS)
